From PubChem BioAssay AID651567 (National Center for Advancing Translational Sciences (NCATS), 2012)
The whole screen tested about 1,200 compounds, of which about 10 (0.8%) were called active. Not shown: some 4% with an inconclusive outcome. The call rests on the fitted dose curve; in most records, active means well fitted inhibition curve with a large enough effect; inconclusive means small, poorly fitted or top-dose-only effect; inactive means no such curve, though single readings can be large or run the other way. The list shows a part of the results.

Assay: qHTS Assay to Find Inhibitors of Chronic Active B-Cell Receptor Signaling: Hit Validation in OCI-Ly3 Assay
Conditions: OCI-Ly3 IkB-luciferase reporter, Chroma-Glo luminescence, 4 h; series mostly up to 46.1 µM; activity change, negative = inhibition: at the top concentration
How it was run: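 OCI-Ly3 cells in IMDM with 0.5% FBS get compound plus 80ng/ml doxycycline (dispensed solution), 4 hrs at 37C. Chroma-Glo read of green IkB-luc and red unfused luc; green/red ratio normalized to basal (0%) and 10 uM MG-132 (100%); concentration-response curves for each signal.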
On the % scale 0 is the no-effect control and ±100 the full control effect.

Activity change, negative = inhibition, inactive:
NNC(=O)c1[nH]c2ccccc2c1-c1ccccc1 -4.38%
COc1ccc(NC(=O)C(=O)c2cn(CC(=O)N3CCCC3)c3ccccc23)cc1 -8.07%
CCCCOc1ccc(Br)cc1/C(C)=N/NC1=NCCN1 -0.15%
CCn1ncc(C2=NOC(C(=O)NCc3ccc(Cl)cc3)C2)c1C (centres undefined) -2.34%
CCn1c2ccccc2c2cc(Nc3cc(C)nc4ncnn34)ccc21 -8.56%
Cc1cccc(C)c1-n1c(C)cc(/C=N/NC(N)=S)c1C -0.724%
CCOC(=O)Cc1csc(NC(=S)NC(=O)c2ccccc2)n1 -1.09%
O=C(CSc1nc2ccccc2c(=O)n1-c1ccccc1F)NC1CC1 -0.149%
CCOc1cc(-c2cc(-c3ccc(NC(C)=O)cc3)nc(N)c2C#N)ccc1O -2.41%
CN(CC(=O)Nc1ccccc1C(F)(F)F)C(=O)c1ccccc1Sc1ccccc1C#N 0.0132%
N=C1SCC(=O)N1c1ncc(Cc2cccc(Cl)c2)s1 27.2%
CCN(CC)c1ccc(-c2nn3c(-c4ccccc4OC)nnc3s2)cc1 -2.37%
CN(C)NC(=S)NC(=O)C12CC3CC(CC(C3)C1)C2 0.0112%
Nc1ncnc2c1ncn2[C@@H]1O[C@H](CNCc2cccc(C#Cc3ccccc3)c2)[C@@H](O)[C@H]1O -0.0698%
CCOC(=O)c1ccccc1NC(=O)Cn1c(-c2nonc2N)nc2ccccc21 -3.47%
CCN(CC)S(=O)(=O)c1ccc2c(c1)c(=O)c(C(=O)NCCc1ccc(OC)c(OC)c1)cn2C -0.826%
O=S(=O)(Nc1cccc2cccnc12)c1ccccc1 36.7%
CCOC(=O)C(NCc1ccccc1)(NC(=O)c1ccccc1)C(F)(F)F (centres undefined) 0.0509%
CC(C)N1C(=O)/C(=C/c2nc3ccccc3c(=O)n2-c2ccccc2)c2ccccc21 -21.8%
COc1ccc(/C=N/NC(=O)c2cc3c(OC)ccc(OC)c3[nH]2)cc1O -1.87%
COC(=O)[C@@H]1[C@@H](C#N)C2(c3ccccc3-c3ccccc32)N(c2ccc(Cl)cc2)N1C#N 0.249%
CC/C(=N/Nc1ccc(Cl)cc1)c1cnnc(SC)n1 -0.51%
Cc1cc(/C=C(\C#N)C(=O)N2CCCCC2)cc(C)c1O -0.53%
C/C(=N\NC(=O)COc1ccccc1-c1ccccc1)c1ccccn1 -14.3%
CCOC(=O)c1[nH]c(C)c(C(=O)c2ccc(C)cc2)c1C -3.19%
COc1ccc(OCC(O)CN2CCN(c3ccccc3)CC2)cc1 (centres undefined) -0.192%
Cc1ccc(S(=O)(=O)n2cc(-c3ccccc3)c3ccccc32)cc1 -3.09%
Cc1ccc2nc(SCC(=O)Nc3cc(C(F)(F)F)ccc3N3CCOCC3)[nH]c2c1 -7.54%
COC(=O)CSC1=C(C#N)C(c2ccc(C)o2)CC(=O)N1 (centres undefined) -0.392%
